{"sequences": {"note": "Amino acid sequences for entries named in this document (tags omitted). A change or cut given only in a name is not applied to a line headed by its entry.", "UniProt P12956": "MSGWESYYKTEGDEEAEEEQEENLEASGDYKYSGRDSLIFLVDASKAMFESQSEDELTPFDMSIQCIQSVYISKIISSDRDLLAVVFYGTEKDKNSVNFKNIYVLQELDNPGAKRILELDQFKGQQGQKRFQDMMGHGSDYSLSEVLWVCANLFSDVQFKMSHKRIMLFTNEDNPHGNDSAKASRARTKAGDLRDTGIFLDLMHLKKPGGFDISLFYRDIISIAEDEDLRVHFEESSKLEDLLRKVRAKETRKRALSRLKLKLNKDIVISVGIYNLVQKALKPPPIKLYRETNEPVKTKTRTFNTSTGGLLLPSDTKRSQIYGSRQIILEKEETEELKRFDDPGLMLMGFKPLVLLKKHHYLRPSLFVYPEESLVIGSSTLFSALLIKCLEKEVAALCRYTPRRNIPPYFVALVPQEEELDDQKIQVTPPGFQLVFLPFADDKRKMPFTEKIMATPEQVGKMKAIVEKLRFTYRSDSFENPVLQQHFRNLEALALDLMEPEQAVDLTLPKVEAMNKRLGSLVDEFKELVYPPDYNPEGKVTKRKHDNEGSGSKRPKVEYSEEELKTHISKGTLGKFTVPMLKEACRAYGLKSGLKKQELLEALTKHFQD", "UniProt P27694": "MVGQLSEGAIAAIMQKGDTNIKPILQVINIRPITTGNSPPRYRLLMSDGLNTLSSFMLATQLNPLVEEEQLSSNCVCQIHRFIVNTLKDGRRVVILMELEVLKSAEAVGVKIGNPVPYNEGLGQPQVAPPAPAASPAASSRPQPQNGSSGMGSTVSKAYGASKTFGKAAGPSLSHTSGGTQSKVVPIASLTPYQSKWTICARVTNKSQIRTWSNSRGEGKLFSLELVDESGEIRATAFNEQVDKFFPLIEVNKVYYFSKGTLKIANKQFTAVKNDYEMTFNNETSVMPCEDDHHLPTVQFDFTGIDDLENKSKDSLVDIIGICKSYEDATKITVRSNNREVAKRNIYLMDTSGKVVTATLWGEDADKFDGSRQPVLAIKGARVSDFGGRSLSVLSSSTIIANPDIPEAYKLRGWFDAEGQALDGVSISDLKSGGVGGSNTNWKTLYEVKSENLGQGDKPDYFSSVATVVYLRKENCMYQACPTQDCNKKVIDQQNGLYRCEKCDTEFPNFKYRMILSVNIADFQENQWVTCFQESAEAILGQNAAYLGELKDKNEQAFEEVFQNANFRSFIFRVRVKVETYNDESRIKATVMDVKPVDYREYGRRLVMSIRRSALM", "UniProt P67809": "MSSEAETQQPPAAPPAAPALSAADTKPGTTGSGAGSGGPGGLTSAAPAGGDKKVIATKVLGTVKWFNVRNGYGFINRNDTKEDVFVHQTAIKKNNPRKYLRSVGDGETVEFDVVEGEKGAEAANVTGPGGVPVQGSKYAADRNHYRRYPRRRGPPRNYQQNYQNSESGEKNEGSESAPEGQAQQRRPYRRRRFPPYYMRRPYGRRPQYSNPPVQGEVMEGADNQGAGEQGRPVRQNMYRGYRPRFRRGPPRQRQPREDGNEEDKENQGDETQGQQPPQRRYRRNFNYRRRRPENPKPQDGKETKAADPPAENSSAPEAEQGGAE", "UniProt P13010": "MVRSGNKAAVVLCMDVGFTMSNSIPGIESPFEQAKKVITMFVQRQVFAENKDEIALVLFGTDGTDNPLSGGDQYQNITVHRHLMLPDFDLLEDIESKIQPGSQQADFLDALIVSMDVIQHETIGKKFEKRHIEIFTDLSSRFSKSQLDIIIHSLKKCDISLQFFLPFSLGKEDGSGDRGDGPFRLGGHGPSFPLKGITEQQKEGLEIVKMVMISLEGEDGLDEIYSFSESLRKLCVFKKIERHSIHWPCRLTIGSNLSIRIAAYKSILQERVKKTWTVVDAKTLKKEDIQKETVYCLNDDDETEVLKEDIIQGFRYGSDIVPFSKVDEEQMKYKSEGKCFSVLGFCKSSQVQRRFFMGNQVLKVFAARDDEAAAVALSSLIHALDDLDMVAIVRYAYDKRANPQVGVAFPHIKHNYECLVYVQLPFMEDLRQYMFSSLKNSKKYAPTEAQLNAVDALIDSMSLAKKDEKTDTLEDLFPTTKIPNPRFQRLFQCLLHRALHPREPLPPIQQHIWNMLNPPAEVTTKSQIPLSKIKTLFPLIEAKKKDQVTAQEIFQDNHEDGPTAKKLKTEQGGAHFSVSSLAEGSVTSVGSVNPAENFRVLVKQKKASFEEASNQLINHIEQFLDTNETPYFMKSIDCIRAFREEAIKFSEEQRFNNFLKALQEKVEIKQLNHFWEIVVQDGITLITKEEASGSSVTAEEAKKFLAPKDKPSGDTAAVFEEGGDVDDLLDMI", "UniProt P15927": "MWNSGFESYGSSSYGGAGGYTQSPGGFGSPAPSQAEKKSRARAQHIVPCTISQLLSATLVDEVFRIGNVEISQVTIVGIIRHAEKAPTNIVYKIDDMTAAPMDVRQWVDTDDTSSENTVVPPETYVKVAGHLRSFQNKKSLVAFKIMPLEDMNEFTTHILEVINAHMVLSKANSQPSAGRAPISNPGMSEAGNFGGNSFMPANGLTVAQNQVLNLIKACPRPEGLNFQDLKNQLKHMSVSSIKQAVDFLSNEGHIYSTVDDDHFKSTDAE"}, "source": "paper PMC9197078", "about": "“The small nonstructural protein NP1 of human bocavirus 1 directly interacts with Ku70 and RPA70 and facilitates viral DNA replication” (PLoS Pathogens, 2022)", "molecules": {"B1": {"name": "DExH-box helicase 30 (DHX30/DDX30) (protein, UniProt Q7L2E3 1-1194)", "chain": "MFSLDSFRKDRAQHRQRQCKLPPPRLPPMCVNPTPGGTISRASRDLLKEFPQPKNLLNSVIGRALGISHAKDKLVYVHTNGPKKKKVTLHIKWPKSVEVEGYGSKKIDAERQAAAAACQLFKGWGLLGPRNELFDAAKYRVLADRFGSPADSWWRPEPTMPPTSWRQLNPESIRPGGPGGLSRSLGREEEEDEEEELEEGTIDVTDFLSMTQQDSHAPLRDSRGSSFEMTDDDSAIRALTQFPLPKNLLAKVIQIATSSSTAKNLMQFHTVGTKTKLSTLTLLWPCPMTFVAKGRRKAEAENKAAALACKKLKSLGLVDRNNEPLTHAMYNLASLRELGETQRRPCTIQVPEPILRKIETFLNHYPVESSWIAPELRLQSDDILPLGKDSGPLSDPITGKPYVPLLEAEEVRLSQSLLELWRRRGPVWQEAPQLPVDPHRDTILNAIEQHPVVVISGDTGCGKTTRIPQLLLERYVTEGRGARCNVIITQPRRISAVSVAQRVSHELGPSLRRNVGFQVRLESKPPSRGGALLFCTVGILLRKLQSNPSLEGVSHVIVDEVHERDVNTDFLLILLKGLQRLNPALRLVLMSATGDNERFSRYFGGCPVIKVPGFMYPVKEHYLEDILAKLGKHQYLHRHRHHESEDECALDLDLVTDLVLHIDARGEPGGILCFLPGWQEIKGVQQRLQEALGMHESKYLILPVHSNIPMMDQKAIFQQPPVGVRKIVLATNIAETSITINDIVHVVDSGLHKEERYDLKTKVSCLETVWVSRANVIQRRGRAGRCQSGFAYHLFPRSRLEKMVPFQVPEILRTPLENLVLQAKIHMPEKTAVEFLSKAVDSPNIKAVDEAVILLQEIGVLDQREYLTTLGQRLAHISTDPRLAKAIVLAAIFRCLHPLLVVVSCLTRDPFSSSLQNRAEVDKVKALLSHDSGSDHLAFVRAVAGWEEVLRWQDRSSRENYLEENLLYAPSLRFIHGLIKQFSENIYEAFLVGKPSDCTLASAQCNEYSEEEELVKGVLMAGLYPNLIQVRQGKVTRQGKFKPNSVTYRTKSGNILLHKSTINREATRLRSRWLTYFMAVKSNGSVFVRDSSQVHPLAVLLLTDGDVHIRDDGRRATISLSDSDLLRLEGDSRTVRLLKELRRALGRMVERSLRSELAALPPSVQEEHGQLLALLAELLRGPCGSFDVRKTADD"}, "B2": {"name": "HBoV1 NS1-70^Flag-His (protein, UniProt D0EZM8-2 1-639)", "chain": "MAFNPPVIRAFSQPAFTYVFKFPYPQWKEKEWLLHALLAHGTEQSMIQLRNCAPHPDEDIIRDDLLISLEDRHFGAVLCKAVYMATTTLMSHKQRNMFPRCDIIVQSELGEKNLHCHIIVGGEGLSKRNAKSSCAQFYGLILAEIIQRCKSLLATRPFEPEEADIFHTLKKAEREAWGGVTGGNMQILQYRDRRGDLHAQTVDPLRFFKNYLLPKNRCISSYSKPDVCTSPDNWFILAEKTYSHTLINGLPLPEHYRKNYHATLDNEVIPGPQTMAYGGRGPWEHLPEVGDQRLAASSVSTTYKPNKKEKLMLNLLDKCKELNLLVYEDLVANCPELLLMLEGQPGGARLIEQVLGMHHINVCSNFTALTYLFHLHPVTSLDSDNKALQLLLIQGYNPLAVGHALCCVLNKQFGKQNTVCFYGPASTGKTNMAKAIVQGIRLYGCVNHLNKGFVFNDCRQRLVVWWEECLMHQDWVEPAKCILGGTECRIDVKHRDSVLLTQTPVIISTNHDIYAVVGGNSVSHVHAAPLKERVIQLNFMKQLPQTFGEITATEIAALLQWCFNEYDCTLTGFKQKWNLDKIPNSFPLGVLCPTHSQDFTLHENGYCTDCGGYLPHSADNSMYTDRASETSTGDITPSK"}}, "note": "These are yes or no findings as the source states them, for the method shown. For some of these results: In cells and extracts the contact can be indirect. Some binding calls cover weakened binding; strength is not graded here. Sequences can lack the tags named with a protein.", "data": [{"target": "T1, Flag-tagged HBoV1 NP1 (NP1^Flag) (human bocavirus 1 (HBoV1)) (UniProt Q3YPH5)", "T1 sequence": "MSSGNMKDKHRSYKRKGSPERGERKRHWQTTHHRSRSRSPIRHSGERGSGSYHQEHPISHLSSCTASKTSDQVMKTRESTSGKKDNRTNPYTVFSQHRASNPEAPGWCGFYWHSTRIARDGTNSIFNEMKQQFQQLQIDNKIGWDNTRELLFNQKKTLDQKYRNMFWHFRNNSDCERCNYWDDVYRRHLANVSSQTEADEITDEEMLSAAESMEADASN", "assay": "co-IP; HEK293 transfected with pCI-NP1^Flag or pCI; lysate (50 mM Tris-HCl pH 8.0, 150 mM NaCl, 1% NP-40) treated with 250 units Benzonase nuclease; anti-Flag affinity resin, ~4 h, 4°C; Western blotting", "values": [{"molecule": "ATP-dependent DNA helicase II 70 KDa (Ku70) (endogenous) (from UniProt P12956 1-609)", "binding": "binds"}, {"molecule": "RPA70 (endogenous) (from UniProt P27694 1-616)", "binding": "binds"}, {"molecule": "Y-box binding protein 1 (YBX1) (from UniProt P67809 1-324)", "binding": "binds"}, {"molecule": "B1", "binding": "binds"}]}, {"target": "T2, glutathione S-transferase (GST)-tagged HBoV1 NP1 (GST-NP1) (human bocavirus 1 (HBoV1)) (UniProt Q3YPH5)", "T2 sequence": "T1 sequence", "assay": "pull-down; both purified", "values": [{"molecule": "His-tagged Ku70/80 heterodimer (Ku70/80^His heterodimer) (from UniProt P12956 1-609; P13010 1-732) (complex)", "binding": "binds"}]}, {"target": "T3, Strep tagged NP1 (NP1^Strep) (human bocavirus 1 (HBoV1)) (UniProt Q3YPH5)", "T3 sequence": "T1 sequence", "assay": "pull-down; both purified", "values": [{"molecule": "His-tagged Ku70/80 heterodimer (Ku70/80^His heterodimer) (from UniProt P12956 1-609; P13010 1-732) (complex)", "binding": "binds"}]}, {"target": "T2, glutathione S-transferase (GST)-tagged HBoV1 NP1 (GST-NP1) (human bocavirus 1 (HBoV1))", "assay": "pull-down; 4 μg GST-tagged bait on Glutathione agarose, 4 μg purified prey; 25 mM Tris pH 7.4, 150 mM NaCl, 1 mM EDTA, 1% NP-40, 4°C, 3 h; benzonase added to bait and prey; Western blotting with anti-His; both purified", "values": [{"molecule": "Ku70-SAP^His (aa537-609) (from UniProt P12956 537-609) (domain or fragment)", "binding": "no binding"}, {"molecule": "Ku70-vWA^His (aa1-265) (from UniProt P12956 1-265) (domain or fragment)", "binding": "no binding"}, {"molecule": "MBP-Ku70-CTR^His (aa440-536) (from UniProt P12956 440-536) (domain or fragment)", "binding": "no binding (tested: 4 μg bait, 4 μg prey)"}, {"molecule": "RPA32^His (from UniProt P15927 1-270)", "binding": "no binding (tested: 4 μg bait, 4 μg prey)"}, {"molecule": "RPA70-A^His (aa181-300) (from UniProt P27694 181-300) (domain or fragment)", "binding": "no binding (tested: 4 μg bait, 4 μg prey)"}, {"molecule": "RPA70-B^His (aa301-422) (from UniProt P27694 301-422) (domain or fragment)", "binding": "no binding (tested: 4 μg bait, 4 μg prey)"}, {"molecule": "RPA70-C-ter^His (aa423-616) (from UniProt P27694 423-616) (domain or fragment)", "binding": "no binding (tested: 4 μg bait, 4 μg prey)"}, {"molecule": "RPA70-N-ter^His (aa1-180) (from UniProt P27694 1-180) (domain or fragment)", "binding": "no binding (tested: 4 μg bait, 4 μg prey)"}, {"molecule": "hexahistidine (His)-tagged Ku80 (Ku80^His) (from UniProt P13010 1-732)", "binding": "no binding (tested: 4 μg bait, 4 μg prey)"}]}, {"target": "T2, glutathione S-transferase (GST)-tagged HBoV1 NP1 (GST-NP1) (human bocavirus 1 (HBoV1))", "assay": "pull-down; 4 μg GST-tagged bait on Glutathione agarose, 4 μg purified prey; 25 mM Tris pH 7.4, 150 mM NaCl, 1 mM EDTA, 1% NP-40, 4°C, 3 h; benzonase added to bait and prey; Western blotting with anti-His; both purified", "remark": "another data set of the same source", "values": [{"molecule": "B2", "binding": "no binding (tested: 4 μg bait, 4 μg prey)"}]}]}
